In the supplement of paper PMC4604168 (melanoma cell lines):
The other results are listed elsewhere or left out. Single values are uncertain, as repeats are few or missing.

System: MZ2-MEL
Experiment: cell count relative to DMSO control; melanoma cells; higher = more viable cells
Conditions: library dose: standard library concentration; 72 h
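Note: cells treated in 1,536-well plates, then fixed and DAPI-stained, with nuclei counted from automated high-throughput microscope images.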

Row | SMILES | cell count
1 | CCCS(=O)(=O)Nc1ccc(F)c(C(=O)c2c[nH]c3ncc(Cl)cc23)c1F + COc1ccc2c(c1)CCC1C2CCC2(C)C(NCCCCCCN3C(=O)C=CC3=O)CCC12 [U73122] (first compound 0.4 µM, partner dose 2 µM) | 84%
2 | CCCS(=O)(=O)Nc1ccc(F)c(C(=O)c2c[nH]c3ncc(Cl)cc23)c1F + C#Cc1cccc(Nc2ncnc3cc(OCCOC)c(OCCOC)cc23)c1 [erlotinib] (first compound 0.4 µM, partner dose 4 µM) | 63.1%
3 | CS(=O)(=O)c1ccc(C(=O)Nc2ccc(Cl)c(-c3ccccn3)c2)c(Cl)c1 [vismodegib] + COc1ccc(Cl)c(Nc2nc3ccccc3nc2NS(=O)(=O)c2cccc(NC(=O)C(C)(C)N)c2)c1 [XL147] (first compound 5 µM, partner dose 4 µM) | 82.8%
4 | CS(=O)(=O)c1ccc(C(=O)Nc2ccc(Cl)c(-c3ccccn3)c2)c(Cl)c1 [vismodegib] + Cn1c(Nc2ccc(C(F)(F)F)cc2)nc2cc(Oc3ccnc(-c4ncc(C(F)(F)F)[nH]4)c3)ccc21 [CHIR265] (first compound 5 µM, partner dose 0.4 µM) | 64.1%
5 | C=C(c1ccc(C(=O)O)cc1)c1cc2c(cc1C)C(C)(C)CCC2(C)C [Bexarotene] + C=CCn1c(=O)c2cnc(Nc3ccc(N4CCN(C)CC4)cc3)nc2n1-c1cccc(C(C)(C)O)n1 [MK1775] (first compound 10 µM, partner dose 0.1 µM) | 124%
6 | CS(=O)(=O)c1ccc(C(=O)Nc2ccc(Cl)c(-c3ccccn3)c2)c(Cl)c1 [vismodegib] + Oc1cc(-c2nc(-c3ccccc3)[nH]c2-c2ccncc2)ccc1Cl [L779450] (first compound 5 µM, partner dose 1 µM) | 96.2%
7 | CN(c1ncccc1CNc1nc(Nc2ccc3c(c2)CC(=O)N3)ncc1C(F)(F)F)S(C)(=O)=O + C=C(c1ccc(C(=O)O)cc1)c1cc2c(cc1C)C(C)(C)CCC2(C)C [Bexarotene] (first compound 0.4 µM, partner dose 10 µM) | 75.5%
8 | CS(=O)(=O)c1ccc(C(=O)Nc2ccc(Cl)c(-c3ccccn3)c2)c(Cl)c1 [vismodegib] + O=C1NC(=O)/C(=C/c2ccc(-c3ccc(F)cc3O)o2)S1 [AS252424] (first compound 5 µM, partner dose 5 µM) | 94.2%
9 | NC1(c2ccc(-c3nc4ccn5c(=O)[nH]nc5c4cc3-c3ccccc3)cc2)CCC1 + CN(NC(=O)CC(=O)NN(C)C(=S)c1ccccc1)C(=S)c1ccccc1 [STA4783] (first compound 2 µM, partner dose 0.03 µM) | 97.9%
10 | CS(=O)(=O)c1ccc(C(=O)Nc2ccc(Cl)c(-c3ccccn3)c2)c(Cl)c1 [vismodegib] + NC1(c2ccc(-c3nc4ccn5c(=O)[nH]nc5c4cc3-c3ccccc3)cc2)CCC1 [MK2206] (first compound 5 µM, partner dose 2 µM) | 101%
11 | CN(c1ncccc1CNc1nc(Nc2ccc3c(c2)CC(=O)N3)ncc1C(F)(F)F)S(C)(=O)=O + O=C(CCCCCCC(=O)Nc1ccccc1)NO [vorinostat] (first compound 0.4 µM, partner dose 0.4 µM) | 101%
12 | CS(=O)(=O)c1ccc(C(=O)Nc2ccc(Cl)c(-c3ccccn3)c2)c(Cl)c1 [vismodegib] + Nc1ncn([C@H]2C[C@H](O)[C@@H](CO)O2)c(=O)n1 [decitabine] (first compound 5 µM, partner dose 0.5 µM) | 97.4%
13 | CN(c1ncccc1CNc1nc(Nc2ccc3c(c2)CC(=O)N3)ncc1C(F)(F)F)S(C)(=O)=O + O=C(Nc1cccc(Cl)c1)Nc1ncc(CCNc2ncnc3ccsc23)s1 [SNS314] (first compound 0.4 µM, partner dose 0.004 µM) | 80.4%
14 | C=C(c1ccc(C(=O)O)cc1)c1cc2c(cc1C)C(C)(C)CCC2(C)C [Bexarotene] + COc1ccc(-c2ccc3c(N4CCOCC4)nc(N4C[C@@H](C)O[C@@H](C)C4)nc3n2)cc1CO [KU0063794] (first compound 10 µM, partner dose 0.1 µM) | 75.2%
15 | C=C(c1ccc(C(=O)O)cc1)c1cc2c(cc1C)C(C)(C)CCC2(C)C [Bexarotene] + Cn1cncc1[C@@](N)(c1ccc(Cl)cc1)c1ccc2c(c1)c(-c1cccc(Cl)c1)cc(=O)n2C [tipifarnib] (first compound 10 µM, partner dose 0.05 µM) | 120%
